Experimental data taken from article PMC12136788.
This is one part of the list.

T1: UNK ZnF1-3 (human, UniProt Q9C0B0 31-174)
T1 sequence: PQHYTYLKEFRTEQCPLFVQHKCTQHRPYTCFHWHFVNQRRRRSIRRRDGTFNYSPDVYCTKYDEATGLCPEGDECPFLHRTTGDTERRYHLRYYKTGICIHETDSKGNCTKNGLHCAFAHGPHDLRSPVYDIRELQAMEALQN

B1: chr16:23111026:23111027:+_ENSMUSG00000022884_ENSMUST00000148085|mus_mus|FALSE|FALSE (ssRNA)
RNA: GGGAGUUCUACAGUCCGACGAUCGAUAUGCUACCCACAAAGAUCAUGAUGAUCUCCAAGCUGAGUAUUUAUUGCUGGUCUAAAUACUUAUUGCACCGAAUCUUAUGACAUAGGACACUGGACAUUAAGAAAGAGGUCCACCCCCAACAGAGGAUUGAGCAUCA
B2: chr4:1729744:1729745:+_ENSG00000013810_ENST00000313288|hu_hu|motif|central (ssRNA)
RNA: GGGAGUUCUACAGUCCGACGAUCGGACUCUGUCCUGCAAGGGUCUUCUAGGGUCUCAGAGGCGGGUGUCACUCUUCUGUCGGAGGAAUAGGAACUAAGGUUUUCCUCCACGGCUUGCUCAGGGCUGCCAGACACUUUUCCUGGCAACAGAGGAUUGAGCAUCA
B3: chr8:104442852:104442853:+_ENSG00000164934_ENST00000297579|hu_hu|FALSE|FALSE (ssRNA)
RNA: GGGAGUUCUACAGUCCGACGAUCUCUCAUAUCUAAGAUAACCUUUUUCAAAGGAGUAGCUUGCCUCAUAUCGUACAGUACUAUAUUCCUGUCAGAUGCACAACUUCCCAAGAGAAAUGUCUCAAUUGGGUUAAAUUUAACACUCAACAGAGGAUUGAGCAUCA
B4: chr11:51935959:51935960:+_ENSMUSG00000020349_ENSMUST00000020608|mus_mus|FALSE|FALSE (ssRNA)
RNA: GGGAGUUCUACAGUCCGACGAUCUUUUCUGACAGUAACAAAGAACAACGCGGGGCUGAGAUUUGAGAAGGGGAGAAACUGAGUGCAGACAAAUCAUACAAUUAAAUUAAUGGUAUCCCUGAAAGAAACACAACAAGAGGGGAGCAACAGAGGAUUGAGCAUCA
B5: chr2:204281756:204281757:+_ENSG00000138443_ENST00000261017|hu_mus|FALSE|FALSE (ssRNA)
RNA: GGGAGUUCUACAGUCCGACGAUCCUUUUCCAAGUAAGCCCUUGGCGCCCACGGUGGGUCCUCUUCAGCGUACGGAUCGCUGUACUCAACCACAGCUGCUUCCUCCUCUUCAUAAUCUUCUGGAGGAGGCGGUGGAGGGGGGGACAACAGAGGAUUGAGCAUCA
B6: chr19:16212804:16212805:+_ENSG00000167460_ENST00000300933|hu_mus|hu_hu_hu_mus_False|18_48 (ssRNA)
RNA: GGGAGUUCUACAGUCCGACGAUCAACAAUUCUGGAGUGAAGGAAAGAUGUAACAUGGAACAGCAUUAAAGCUCAGUCAGAAGGCACGUGGGUAAUUAUGAUCACCCCAGCAUUCUCCUACGUUGACCUUAAAGACAAUCUGUUCAACAGAGGAUUGAGCAUCA
B7: 100203277_100203397_2944_CDS_ENSMUSG00000052727_ENSMUST00000064762|mouse|control|control (ssRNA)
RNA: GGGAGUUCUACAGUCCGACGAUCGGCACUCCCGCUCGCAUUGUCUUCCCCGUCCUCUUCCGGUUCCUCAGCCUCCUCAGUUUCCGCCUUCUCUUCGUAGUCUCCGGUCUCUGAGGAUUCUUCAAAACCAGCUCCUUCAUCUUCCAACAGAGGAUUGAGCAUCA
B8: chr4:4691572:4691573:-_ENSMUSG00000066324_ENSMUST00000084949|mus_mus|motif|central (ssRNA)
RNA: GGGAGUUCUACAGUCCGACGAUCAAAGAUUAGGGUUUUUCUACACAGUUUUAAGACAGAGCCAUUCUGCAGGUAUAUCACGGAAAACAUCUUACUUGGACCUAAAAUGAAAACACUACUAAUGUUUCUACACAGCAGUAAUAUCAACAGAGGAUUGAGCAUCA
B9: chr14:62194323:62194324:+_ENSG00000100644_ENST00000337138|hu_hu|FALSE|FALSE (ssRNA)
RNA: GGGAGUUCUACAGUCCGACGAUCUCUUUCAUCACAAUAAGAAAAUUUCAUAUCCAGGCUGUGUCGACUGAGGAAAGUCUUGCUAUCUAAAGGAAUUUCAAUAUUUGAUGGGUGAGGAAUGGGUUCACAAAUCAGCACCAAGCACAACAGAGGAUUGAGCAUCA
B10: chr2:91613138:91613139:+_ENSMUSG00000040506_ENSMUST00000045705|mus_hu|FALSE|FALSE (ssRNA)
RNA: GGGAGUUCUACAGUCCGACGAUCCUGCUGUCUCAGCACAGACAGCAAACUCACCGAAGAGGCACUGGUUCUGGGCGGGGGCAUGGAUUCCGCCUCAGAGCGGGAGUUCAGACUGAGUACUGUCCGGGUCCACUCAGAUCCUGUCAACAGAGGAUUGAGCAUCA
B11: chr1:6251023:6251024:+_ENSMUSG00000025907_ENSMUST00000027040|mus_mus|FALSE|FALSE (ssRNA)
RNA: GGGAGUUCUACAGUCCGACGAUCUUCCGCAACUAAGCUUGAAGAAUCUUCUCUGGCUGACUCAAAGGCAGGAGUUUUGGCUAUUUGAUUCUCAAGAUGUUUAACUUUUUCUAAUAACUCUUUCUCAACAAGUUCUCUCUCCACCAACAGAGGAUUGAGCAUCA
B12: chr7:35674789:35674790:-_ENSG00000122557_ENST00000396081|hu_hu|motif|central (ssRNA)
RNA: GGGAGUUCUACAGUCCGACGAUCUCCAGCUUGGUGUAAAUAAACCAGUAGCAUGGCUCCCAUUACCAUGAUAAACCGACGGAAAGAAGAAUAGAAGUAUACAAUGCUAAGGAGAAUCGCAGCUCGUGAGAACGUGUACAUCCACAACAGAGGAUUGAGCAUCA
B13: chr1:39494564:39494565:+_ENSG00000168653_ENST00000372967|hu_hu|hu_hu_hu_mus_True|18_108 (ssRNA)
RNA: GGGAGUUCUACAGUCCGACGAUCAUGUGCACGUCUCAUCGUUUUGUACCGAAGCAAGCACUCUUCGAAGUCAUCGAACUCUAUCUUGCACUCCUUUUUCGCCCGGGUCCCACCGAUUCCAUGUGCACACUCUAUCCACUCUUUCAACAGAGGAUUGAGCAUCA
B14: chr17:56552419:56552420:-_ENSMUSG00000013236_ENSMUST00000086828|mus_mus|mus_mus_mus_hu_False|68_108 (ssRNA)
RNA: GGGAGUUCUACAGUCCGACGAUCAAAGUUUUUUUCUUUUAAAAAAAAUGAAAUGUCACGGGAUACAAAAAAAUAUAGAGUUUUAAAAGAAAGCUGGAUUCUGGUCCCAGCCCAGUGUCCCCAGGCUGCAGAGCGGGGAGGAGCCAACAGAGGAUUGAGCAUCA

What follows are binders tested against T1, UNK ZnF1-3 (assay: nsRBNS (natural sequence RNA bind-n-seq); RBNS binding buffer (assumed for nsRBNS): 25 mM Tris pH 7.5, 150 mM KCl, 3 mM MgCl2, 0.01% Triton X-100, 500 ug/ml BSA, 20 U/ml SUPERase-In, 4 C; UNK is unkempt and MSI1 is Musashi-1; names of the RNAs are library labels; protein concentration not given here; high values mean tight binding).

Row | Binder | binding signal [enrichment R]
1 | B1 | 1.05
2 | B2 | 0.915
3 | B3 | 0.732
4 | B4 | 2.48
5 | B5 | 1.1
6 | B6 | 1.02
7 | B7 | 0.577
8 | B8 | 1.01
9 | B9 | 1.87
10 | B10 | 0.81
11 | B11 | 1.19
12 | B12 | 1.44
13 | B13 | 0.424
14 | B14 | 2.2
